Each compound was assayed against T1, Amine oxidase [flavin-containing] A (Homo sapiens, UniProt P21397) (assay: biochemical).
T1 sequence (P21397 whole entry): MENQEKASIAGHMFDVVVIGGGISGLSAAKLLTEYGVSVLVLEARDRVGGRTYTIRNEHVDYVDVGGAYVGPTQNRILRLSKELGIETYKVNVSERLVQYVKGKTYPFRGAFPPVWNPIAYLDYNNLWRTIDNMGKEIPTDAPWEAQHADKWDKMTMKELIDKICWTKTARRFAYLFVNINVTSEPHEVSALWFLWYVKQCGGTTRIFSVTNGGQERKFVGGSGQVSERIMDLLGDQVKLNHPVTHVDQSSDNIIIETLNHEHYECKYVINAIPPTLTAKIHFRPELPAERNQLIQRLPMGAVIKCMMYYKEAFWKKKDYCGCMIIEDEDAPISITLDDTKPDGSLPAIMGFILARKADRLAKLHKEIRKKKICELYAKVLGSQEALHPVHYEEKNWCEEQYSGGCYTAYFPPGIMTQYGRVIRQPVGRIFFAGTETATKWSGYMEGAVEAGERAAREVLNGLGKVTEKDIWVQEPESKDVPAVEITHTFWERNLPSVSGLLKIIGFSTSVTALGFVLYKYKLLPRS
Assay type: cell-based, BTI-TN-5B1-4
In the case of `C[C@H]1CCC/C(=N/Nc2nc(-c3ccc(C#N)cc3)cs2)C1`, the IC50 is reported as 17.1 µM.

These compounds were tested against T2, Amine oxidase [flavin-containing] B (Homo sapiens, UniProt P27338) (assay: biochemical).
T2 sequence (P27338 whole entry): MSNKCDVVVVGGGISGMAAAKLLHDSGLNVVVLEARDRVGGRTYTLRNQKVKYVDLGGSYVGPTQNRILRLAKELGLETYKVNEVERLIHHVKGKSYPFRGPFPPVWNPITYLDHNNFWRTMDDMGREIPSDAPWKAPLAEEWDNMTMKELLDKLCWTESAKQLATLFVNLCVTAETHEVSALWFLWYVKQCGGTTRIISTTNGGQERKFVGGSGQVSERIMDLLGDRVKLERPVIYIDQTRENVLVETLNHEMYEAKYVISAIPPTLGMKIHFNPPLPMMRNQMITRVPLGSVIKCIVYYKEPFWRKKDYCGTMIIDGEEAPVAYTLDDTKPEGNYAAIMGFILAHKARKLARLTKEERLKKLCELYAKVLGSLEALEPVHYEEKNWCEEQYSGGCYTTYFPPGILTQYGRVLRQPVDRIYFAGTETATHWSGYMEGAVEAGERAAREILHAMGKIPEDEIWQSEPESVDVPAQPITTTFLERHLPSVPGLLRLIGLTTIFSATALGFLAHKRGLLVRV
`C[C@H]1CCC/C(=N/Nc2nc(-c3ccc([N+](=O)[O-])cc3)cs2)C1` gave an IC50 of 0.21 µM. `CC1CCC/C(=N/Nc2nc(-c3ccccc3)cs2)C1` (centres undefined) was tested, and the IC50 was 2.23 µM. Work on `CC1CCC/C(=N/Nc2nc(-c3ccc([N+](=O)[O-])cc3)cs2)C1` (centres undefined) yielded an IC50 of 0.41 µM. `C[C@@H]1CCC/C(=N/Nc2nc(-c3ccccc3)cs2)C1` gave an IC50 of 0.81 µM. `C[C@@H]1CCC/C(=N/Nc2nc(-c3ccc([N+](=O)[O-])cc3)cs2)C1` was tested, and the IC50 was 0.086 µM. `C[C@@H]1CCC/C(=N/Nc2nc(-c3ccc(Cl)cc3)cs2)C1` was tested, and the IC50 was 9.55 µM. In the case of `CC1CCC/C(=N/Nc2nc(-c3ccc(C#N)cc3)cs2)C1` (centres undefined), the IC50 is reported as 0.12 µM. Work on `COc1ccc(-c2csc(N/N=C3/CCCC(C)C3)n2)cc1` (centres undefined) yielded an IC50 of 4.51 µM. Compound `C[C@H]1CCC/C(=N/Nc2nc(-c3ccc(C#N)cc3)cs2)C1` has an IC50 of 0.42 µM. Work on `C[C@@H]1CCC/C(=N/Nc2nc(-c3ccc(C#N)cc3)cs2)C1` yielded an IC50 of 0.23 µM. `CC1CCC/C(=N/Nc2nc(-c3ccc(Cl)cc3)cs2)C1` (centres undefined) was tested, and the IC50 was 21.9 µM. `COc1ccc(-c2csc(N/N=C3/CCC[C@@H](C)C3)n2)cc1` showed an IC50 of 3.12 µM. `C[C@@H]1CCC/C(=N/Nc2nc(-c3ccc(Cl)cc3Cl)cs2)C1` was tested, and the IC50 was 3.68 µM.
